# Data reported in PubChem BioAssay AID903 (National Center for Advancing Translational Sciences (NCATS), 2007).
# About 340 (0.62%) of roughly 55,000 compounds were called active. Inconclusive results, whose numbers are uncertain, are shown with a selection of clear calls. The call rests on the fitted dose curve; in most records, active means well fitted cell-killing curve with a large enough effect; inconclusive means small, poorly fitted or top-dose-only effect; inactive means no such curve, though single readings can be large or run the other way. Potencies beside an inconclusive call are fits to weak or partial responses and may not hold up.
# Assay: qHTS Screen for Compounds that Selectively Target Cancer Cells with p53 Mutations: Cytotoxicity of p53 Null Cells at the Permissive Temperature; further: nearly all actives have a fitted effect of over 55% in size
# Conditions: H1299-neo p53 null cells, ATP luminescence, 24 h, 32C; series mostly up to 46.1 µM
# Description: NIH Chemical Genomics Center [NCGC] NIH Molecular Libraries Screening Centers Network [MLSCN] MLSCN Grant: 1 X01 MH079844-01 Assay Submitter (PI): Dr. SUN, YI, University of Michigan NCGC Assay Overview: Synthetic Lethal Screen for Compounds to Kill Cancer Cells with p53 Mutation. Tumor suppressor gene p53 serves as a major cellular barrier against tumorigenesis. […] The goal of this screening is to identify small molecule probes that selectively kill cancer cells with mutations in p53. This screening was carried out using two lines of H1299 lung cancer cells. The H1299-p53 A138V line express a temperature sensitive p53 mutant (p53ts) in which the mutant p53 protein (A138V) is in the mutant confirmation when grown at 39C (the nonpermissive temperature) and in the wild type conformation when grown at 32C (the permissive temperature). A H1299-neo line (p53 null) grown at both 39C and 32C were used as counter-screens to filter out false positive associated with temperature shifting. The small molecular compounds that selectively target mutant p53-containing cancer cells were selected as candidate probes for further study. A cytotoxicity assay based on the measurement of ATP contents in cells was used in this screen. Concentration-responses of all the compounds in the library collection were determined in qHTS using the cell lines and temperature conditions as above.
# NCGC Assay Protocol Summary: Both the H1299-p53A138V and H1299-neo cell lines were provided by Dr.Yi Sun, a PI at the University Michigan. The cells were maintained and cultured at 37C. The resuspended frozen cells were used to plate the cells in the 1536-well assay plates at a density of 600 cells per well in 5 ul medium. The assay plates with the cells were incubated at 37C for 16 to 30 hours before the experiments. The library compounds in DMSO solution were added to the cells in assay plates and incubated 24 hours at 39C (for mutant p53 conformation) or 32C (for normal p53 conformation as control). An ATP_lite assay kit (PerkinElmer) was used to determine the cell viability. Tomaxifen (100uM) was used as the positive control for cell killing. Data were normalized to the controls for basal activity (DMSO only) and 100% killing (100uM tamoxifen). AC50 values were determined from concentration-response data modeled with the standard Hill equation. P53 assay protocol: 1. Reagent; 5 uL H1299-p53A138V or H1299-neo cell cells/well 2. Time; overnight; 37C incubation 3. Compounds; 23 nL; 5.9 nM to 46 uM 4. Controls; 23 nL; Tamoxifen 100 uM 5. Time; 24 hr; 32C incubation 6. Reagent; 3 uL; ATP_Lite reagent 7. Time; 20 min; Room Temperature 8. Detection; Luminescence; Viewlux plate reader Keywords: p53, synthetic lethal, cancer, cell viability, cytotoxicity, H1299 cell line, luminescence, MLSMR, MLSCN, NIH Roadmap, qHTS, NCGC
# Potency means the concentration at half of the fitted maximal effect; tags describe the fitted curve by direction and shape.
row,Structure (SMILES),Potency
1,CCN(C(=O)Cn1nc(Cc2ccncc2)c2ccccc2c1=O)c1cccc(Cl)c1,"inconclusive: 31.6 µM [cytotoxic, single point]"
2,COc1ccccc1Nc1c2c(nc3ccc(NC(=O)c4ccc(OC)c(OC)c4)cc13)CCCC2,"inconclusive: 14.1 µM [cytotoxic, single point]"
3,CN(C)c1ccc(C(CNS(=O)(=O)c2ccc(F)cc2)N2CCCC2)cc1 (centres undefined),"inconclusive: 5.62 µM [cytotoxic, single point]"
4,O=C(CCS(=O)(=O)c1nc(-c2ccc3c(c2)OCO3)cc(C(F)(F)F)n1)Nc1ccc(F)c(Cl)c1,"inconclusive: 11.2 µM [cytotoxic, single point]"
5,CC(NC(=O)c1cccc(NC(=O)c2nsc3ccccc23)c1)c1ccccc1 (centres undefined),"inconclusive: 12.6 µM [cytotoxic, single point]"
6,CCOc1ccc(-c2cc(C(=O)N3CCN(c4cccc(C)c4)C(C)C3)c3ccccc3n2)cc1 (centres undefined),"inconclusive: 12.6 µM [cytotoxic, partial curve]"
7,Cc1ccc(C)c(N2CCN(C(=O)CCCCCn3c(=O)[nH]c4ccccc4c3=O)CC2)c1,"inconclusive: 31.6 µM [cytotoxic, single point]"
8,Cc1ccc(OCCN2CCN(CC(O)Cn3c4ccccc4c4ccccc43)CC2)cc1 (centres undefined),"inconclusive: 10 µM [cytotoxic, partial curve]"
9,COc1cc(C(=O)NCC(c2ccc3c(c2)OCO3)N2CCN(C)CC2)cc(OC)c1OC (centres undefined),"inconclusive: 5.62 µM [cytotoxic, single point]"
10,CC(C)c1ccc2oc(-c3cc(NC(=O)c4cccnc4)ccc3Cl)nc2c1,"inconclusive: 31.6 µM [cytotoxic, single point]"
11,O=C(Nc1cccc(F)c1)C1CCN(S(=O)(=O)c2ccc3[nH]c4c(c3c2)CCCCC4)CC1,inactive
12,COc1ccc(Nc2oc(-c3ccc(COc4ccccc4)o3)nc2C#N)cc1,inactive
13,CCOc1ccccc1C(=O)Nc1cc(-c2nc3cccnc3s2)ccc1C,"inconclusive: 35.5 µM [cytotoxic, single point]"
14,CCOc1ccc(Nc2nc(Nc3ccc(OCC)cc3)nc(N3CCOCC3)n2)cc1,inactive
15,Cc1ccc(C)c(CN2C(=O)C(O)(c3c[nH]c4ccccc34)c3ccccc32)c1 (centres undefined),"inconclusive: 25.1 µM [cytotoxic, single point]"
16,O=C(Nc1ccc2nc(-c3ccco3)c(-c3ccco3)nc2c1)NC1CC1,"inconclusive: 35.5 µM [cytotoxic, single point]"
17,CC(=O)Nc1cccc(-c2csc(Nc3ccc(C)cn3)n2)c1,active: 11.2 µM
18,CC(C)c1ccc(OCC(=O)Nc2cc(-c3nc4ncccc4o3)ccc2Cl)cc1,inactive
19,COc1ccccc1C(=O)Nc1c(C(=O)Nc2ccc(C)cc2)oc2ccccc12,"inconclusive: 35.5 µM [cytotoxic, single point]"
20,CCOc1ccc(-c2nonc2NC(=O)c2oc3cc(Br)ccc3c2C)cc1,"inconclusive: 3.98 µM [cytotoxic, full curve]"
21,CC(C)c1nnc(NC(=O)c2nc(S(=O)(=O)Cc3ccccc3)ncc2Cl)s1,"inconclusive: 31.6 µM [cytotoxic, single point]"
22,CCc1ccc(N2C(=O)CS(=O)(=O)C23C(=O)N(Cc2ccccc2F)c2ccccc23)cc1 (centres undefined),inactive

row,Structure (SMILES),Potency
1,Cc1ccc(-c2csc(NC(=O)CSc3nc(C)cs3)n2)cc1,"inconclusive: 25.1 µM [cytotoxic, single point]"
2,Cc1cccc(NC(=O)c2ccc(-c3ccccc3)s2)c1,"inconclusive: 20 µM [cytotoxic, partial curve]"
3,CCOC(=O)COc1ccc(C2C(C(=O)OC)=C(C)NC3=C2C(=O)c2ccccc23)cc1Cl (centres undefined),"inconclusive: 17.8 µM [cytotoxic, partial curve, poor fit]"
4,CN(c1ccccc1)S(=O)(=O)c1ccc(NC(=O)c2nc(S(C)(=O)=O)ncc2Cl)cc1,active: 22.4 µM
5,CCc1ccc(NC(=O)CCc2nnc3n(C)c(=O)c4sccc4n23)cc1,"inconclusive: 5.62 µM [cytotoxic, single point]"
6,O=C(Nc1nnc(SCC(=O)N2CCCc3ccccc32)s1)c1ccccc1,active: 7.94 µM
7,CCCN(CCC)S(=O)(=O)c1ccc(C(=O)Nc2cccc(-c3nc4ccccc4[nH]3)c2)cc1,inactive
8,N#Cc1c(-n2ncnc2-c2ccccc2C(F)(F)F)sc2c1CCCCC2,"inconclusive: 2.51 µM [cytotoxic, single point]"
9,Cc1ccc(C(=O)Nc2ccc(S(=O)(=O)Nc3onc(C)c3C)cc2)cc1,"inconclusive: 10 µM [cytotoxic, partial curve]"
10,COc1ccc(-c2cc(C(F)(F)F)n3nc(C(=O)NCC45CC6CC(CC(C6)C4)C5)cc3n2)cc1,"inconclusive: 31.6 µM [cytotoxic, single point]"
11,COC(=O)c1cc2sccc2n1Cc1nc(-c2ccc(Cl)cc2)oc1C,inconclusive: 0.0006 µM [cytotoxic]
12,C=CCn1c(=O)c2ccccc2n2c(SC(C)C(=O)Nc3nc(-c4ccccc4)cs3)nnc12 (centres undefined),inactive
13,Nc1c(C(=O)Nc2ccc(C(=O)O)cc2)sc2nc3c(cc12)CCCC3,"inconclusive: 2.24 µM [cytotoxic, full curve, poor fit]"
14,COc1ccc(N=c2scc(-c3ccc(OC)cc3)n2CCO)cc1,inactive
15,Cc1cccc(-n2ncc3c(NC4CCCC4)ncnc32)c1,active: 12.6 µM
16,CCOCc1cc(CN2CCN(c3cccc(Cl)c3)CC2)c(O)c2ncccc12,"inconclusive: 3.98 µM [cytotoxic, partial curve]"
17,O=C(NCc1cccc(F)c1)c1cccc(NC(=O)c2nsc3ccccc23)c1,"inconclusive: 10 µM [cytotoxic, partial curve]"
18,CCS(=O)(=O)c1nc(S(=O)(=O)c2ccc(Cl)cc2)c(NCc2ccccc2Cl)s1,inactive
19,CCOC(=O)CSc1nc2ccc(NC(=O)c3ccccc3F)cc2s1,"inconclusive: 20 µM [cytotoxic, partial curve]"
20,O=C(N/N=C/c1cccs1)c1ccc2c(c1)OCO2,active: 2.82 µM
21,CCCN(CCC)CCNC(=O)C1CCN(c2nc3ccc(CC)cc3s2)CC1,"inconclusive: 12.6 µM [cytotoxic, partial curve]"
22,COc1ccccc1-c1cc2nc(C)c(CCC(=O)Nc3cc(C)ccc3C)c(C)n2n1,inactive

row,Structure (SMILES),Potency
1,Cc1ccc(-c2nc3cc(C(C)C)ccc3o2)cc1NC(=O)c1cc([N+](=O)[O-])ccc1N1CCOCC1,"inconclusive: 15.8 µM [cytotoxic, single point]"
2,CCOc1ccc(-c2noc(CSc3nnc(Cc4ccccc4)n3-c3cccc(C)c3)n2)cc1,"inconclusive: 15.8 µM [cytotoxic, single point]"
3,COc1ccccc1NC(=O)c1cc(S(=O)(=O)NCCC2=CCCCC2)ccc1F,inactive
4,CCN(c1ncnc2c1cnn2-c1cccc(Cl)c1)C1CCCCC1,"inconclusive: 12.6 µM [cytotoxic, partial curve]"
5,CCOC(=O)c1[nH]c2ccc(C)cc2c1N,"inconclusive: 11.2 µM [cytotoxic, single point]"
6,Cc1ccc(C)c(Nc2nn3c(=O)c4ccc(C(=O)NCc5cccs5)cc4nc3s2)c1,"inconclusive: 20 µM [cytotoxic, single point]"
7,Cc1ccccc1Nc1c(-c2ccc(N3CCOCC3)cc2)nc2ccc(Cl)cn12,"inconclusive: 12.6 µM [cytotoxic, partial curve]"
8,O=C(CC1(O)C(=O)N(Cc2ccccc2)c2ccc(Br)cc21)c1ccccc1 (centres undefined),"inconclusive: 31.6 µM [cytotoxic, single point]"
9,Cc1cccc(N2CCN(c3ncnc4onc(C)c34)CC2C)c1 (centres undefined),"inconclusive: 25.1 µM [cytotoxic, single point]"
10,CCc1ccc2occ(CC(=O)Nc3sc4c(c3C(=O)OC)CCC4)c2c1,"inconclusive: 12.6 µM [cytotoxic, partial curve]"
11,c1ccc(CNc2nc3c(-c4ccccc4)nnn3c3ccccc23)cc1,"inconclusive: 31.6 µM [cytotoxic, single point]"
12,Cc1ccc(CNC(=O)c2ccc(Cn3c(=O)c4ccccc4n(CC(=O)Nc4ccc(C)cc4C)c3=O)cc2)cc1,inactive
13,CCOc1ccc(NC(=O)c2ccc(NC(=O)N3CCSc4ncccc43)cc2)cc1,"inconclusive: 10 µM [cytotoxic, partial curve]"
14,CCCCN(C)c1nc2c(S(=O)(=O)c3ccc(CC)cc3)nnn2c2ccc(Cl)cc12,"inconclusive: 0.0316 µM [cytotoxic, full curve, poor fit]"
15,Cc1ccc2nc(N(Cc3cccnc3)C(=O)COc3ccccc3)sc2c1,"inconclusive: 31.6 µM [cytotoxic, single point]"
16,CCCCN(C)CCCNC(=O)C1CCN(c2nc3ccc(CC)cc3s2)CC1,"inconclusive: 10 µM [cytotoxic, partial curve]"
17,Fc1ccc(-c2nnc(-c3ccc(Cl)cc3Cl)o2)cc1,active: 6.31 µM
18,CC(=O)c1ccc(S(=O)(=O)Nc2cccc(-c3ccc(N4CCCCCC4)nn3)c2)cc1,"inconclusive: 12.6 µM [cytotoxic, partial curve]"
19,Nc1cccc(-c2cn3ccsc3n2)c1,"inconclusive: 11.2 µM [cytotoxic, partial curve]"
20,Cc1ccc(CN2C(=O)C(O)(c3c[nH]c4ccccc34)c3cc(Cl)ccc32)cc1 (centres undefined),"inconclusive: 31.6 µM [cytotoxic, single point]"
